IC50 data for 39 compounds are collected here from patent US6906072B1 (Eisai Co., Ltd., priority 2000, dated 2005).

The test system of the assay is potential dependent calcium channel. Put plainly: Measurement of potential dependent calcium channel activity using fluorescent dye (fura2) in cerebral cortex synaptosome stimulated with KCl. The assay is classed as cell-based. Particulars: rat cerebral cortex synaptosome, KCl stimulation, fura2, intracellular calcium ion concentration.

As to `CC(C)C(C#N)(CCCN1CCN(CCOc2ccc(C(F)(F)F)cn2)CC1)c1ccc(C#N)s1` (stereo not drawn) [Example 184, 1-[4-Cyano-4-(5-cyano-2-thienyl)-5-methylhexyl]-4-[2-(5-trifluoromethyl-2-pyridyloxy)ethyl]piperazine], the IC50 came to 5.4 µM.
With `CC(C)C(C#N)(CCCN1CCN(CCOc2cccc(C#N)c2)CC1)c1cc(C#N)sc1Br` (stereo not drawn) [Example 93, 1-(4-cyano-5-methyl-4-[2-bromo-5-cyano-3-thienyl)hexyl]-4-[2-(3-cyanophenoxy)ethyl]piperazine], the IC50 turned out to be 6.9 µM.
Turning to `CC(C)C(C#N)(CCCN1CCN(Cc2cnccc2-c2ccccc2)CC1)c1ccccc1` (stereo not drawn) [Example 7, 1-[(4-cyano-5-methyl-4-phenyl)hexyl]-4-[(4-phenyl-3-pyridyl) Methyl]piperazine], the IC50 stood at 5.8 µM.
`CC(C)C(CCN1CCN(CCCC(C#N)(c2ccccc2)C(C)C)CC1)c1ccccc1` (stereo not drawn) [Example 52, 1-[(4-Cyano-5-methyl-4-phenyl)hexyl]-4-(4-methyl-3-phenylpentane)piperazine]: the IC50 turned out to be 5.1 µM.
Under `CC(C)C(C#N)(CCCN1CCN(CCCc2cccs2)CC1)c1ccc(C#N)s1` (stereo not drawn) [Example 78] stands 8.9 µM; under `CC(C)C(C#N)(CCN1CCN(CCS(=O)(=O)N2CCCc3ccccc32)CC1)c1cccs1` (stereo not drawn) [Example 121, 1-[3-Cyano-4-methyl-5-(2-thienyl)pentyl]-4-[2-[N-(1 2.3.4-tetrahydro-1-quinolinyl)Sulfamoyl]ethyl]piperazine], 14 µM; under `CC(C)C(C#N)(CCCN1CCN(CCOc2cccc(C#N)c2)CC1)c1ccc(C#N)s1` (stereo not drawn) [Example 70], 13 µM.
Under `CC(C)C(C#N)(CCCN1CCN(CCC/C(=N\O)c2ccc(F)cc2)CC1)c1ccccc1` (stereo not drawn) [Example 51, 1-[(4-Cyano-5-methyl-4-phenyl)hexyl]-4-[4-hydroxime-4-(4′-fluorophenyl)butyl]piperazine] stands 5.2 µM; under `CC(C)C(C#N)(CCCN1CCN(Cc2cc3ccccc3o2)CC1)c1ccccc1` (stereo not drawn) [Example 3], 5.4 µM.
The value for `CC(C)C(C#N)(CCCN1CCN(CCOc2ccc(F)cc2)CC1)c1cccc2ccccc12` (stereo not drawn) [Example 26, 1-[4-cyano-5-methyl-4-(1-naphthyl)hexyl]-4-[2-(4-fluorophenoxy)ethyl]piperazine] was 5.2 µM; that for `CC(C)C(C#N)(CCCN1CCC(N(CCC#N)CCOc2cccc(C#N)c2)C1)c1cccs1` (stereo not drawn) [Example 37, 1-[(4-cyano-5-methyl-4-(2-thienyl))hexyl]-3-[N-(2-cyanoethyl)-N-{2-(3-cyanophenoxy)ethyl}amino]pyrrolidine] was 8.3 µM.
As for `CC(C)C(C#N)(CCCN1CCC(N(CCC#N)CCOc2cccc(C#N)c2)C1)c1ccccc1` (stereo not drawn) [Example 33, 1-[(4-cyano-5-methyl-4-phenyl)hexyl]-3-[N-(2-cyanoethyl)-N-(2-(3-cyanothenoxy)ethyl]Amino]pyrrolidine], the half-inhibitory concentration (IC50) is 2.6 µM.
The value for `CC(C)C(C#N)(CCCN[C@@H]1CCN(c2cccc(Br)n2)C1)c1cccs1` (stereo partly drawn) [Example 179, 1-(6-bromo-2-pyridyl)-(3R)-3-{N-[4-cyano-4-(2-thienyl)-5-methylhexyl]Amino}Pyrrolidine] was 19 µM.
The value for `CC(C)C(C#N)(CCCN1CCC(N(CCC#N)CCOc2ccc(F)cc2)CC1)c1ccccc1` (stereo not drawn) [Example 24, 1-[(4-cyano-5-methyl-4-phenyl)hexyl]-4-[2-(4-fluorophenoxy)ethyl](2-cyanoethyl)aminopiperidine] was 3 µM.
As for `CCCOCC(CN1CCN(CCCC(C#N)(c2ccccc2)C(C)C)CC1)Oc1ccc(F)cc1` (stereo not drawn) [Example 56, 1-[(4-Cyano-5-methyl-4-phenyl)hexyl]-4-[3-(n-propanoxy)-2-(4-fluorophenoxy)propyl]piperazine], the IC50 was found to be 3.7 µM.
The value for `CC(C)C/N=C(\Nc1ccc(F)cc1)N1CCN(CCCC(C#N)(c2ccccc2)C(C)C)CC1` (stereo not drawn) [Example 59, 4-[(4-Cyano-5-methyl-4-phenyl)hexyl]-N-(4-fluorophenyl)-N^2-(2-methylpropyl)-1(2H)-pyrazinecarboxyimidamide] was 8.2 µM; that for `CC(C)C(C#N)(CCCN1CCC(N2CCC(c3ccccc3)CC2)CC1)c1ccccc1` (stereo not drawn) [Example 117, 4-[4-(4-phenylpiperidinyl)-piperidinyl]-1-isopropyl-1-phenylbutyl Cyanide] was 11 µM.
Under `CC(C)C(C#N)(CCCN1CCN(CCOc2cccc(C#N)c2)CC1)c1cc(Br)sc1Br` (stereo not drawn) [Example 92, 1-[4-cyano-5-methyl-4-[(2.5-dibromo)-3-thienyl]hexyl]-4-[2-(3-cyanophenoxy)ethyl]piperazine] stands 3.1 µM.
Under `CC(C)C(C#N)(CCCC1CCN(CCOc2ccc(F)cc2)CC1)c1ccccc1` (stereo not drawn) [Example 48] stands 3.5 µM; under `CC(C)C(C#N)(CCCN1CCN(C(=O)C2CCc3ccccc3C2)CC1)c1ccccc1` (stereo not drawn) [Example 8, 1-[(4-cyano-5-methyl-4-phenyl)hexyl]-4-(1.2.3.4-tetrahydro-2-naphthoyl)piperazine], 6.8 µM.
Turning to `CC(C)N(CCN1CCN(CCCC(C#N)(c2cccs2)C(C)C)CC1)c1cccc(C#N)c1` (stereo not drawn) [Example 112, 1-[4-Cyano-5-methyl-4-(2-thienyl)hexyl]-4-{N-[(3-cyanophenyl)-N-isopropylamino]ethyl]piperazine], the IC50 was 5.9 µM.
For the compound `CC(C)C(C#N)(CCCN1CCC(N2CCC(C#N)(c3ccccc3)CC2)CC1)c1ccccc1` (stereo not drawn) [Example 118, 4-[4-(4-Cyano-4-phenylpiperidinyl)-piperidinyl]-1-isopropyl-1-phenylbutyl Cyanide], the IC50 was 12 µM.
On to `CC(C)C(C#N)(CCCN1CC2CC1CN2CCOc1ccc(F)cc1)c1ccccc1` (stereo not drawn) [Example 14, 2-[(4-cyano-5-methyl-4-phenyl)hexyl]-5-[2-(4-fluorophenoxy)ethyl]-2.5-diazabicycl[2,2,1]heptane], for which the IC50 worked out at 6.5 µM.
Under `CC(C)C(C#N)(CCCN1CCN(CCc2ccccc2)CC1)c1ccccc1` (stereo not drawn) [Example 30, 1-[(4-cyano-5-methyl-4-phenyl)hexyl]-4-(2-phenylethyl)piperazine] stands 7.7 µM; under `CC(C)C(C#N)(CCCN1CCN(CCCc2ccccc2)CC1)c1ccccc1` (stereo not drawn) [Example 31], 4.5 µM; under `CC(C)C(C#N)(CCCN1CCC(CCc2cccc3c2OCO3)CC1)c1ccccc1` (stereo not drawn) [Example 67], 7.1 µM.
For the compound `CSc1ccc(OCCN2CCN(CCCC(C#N)(c3cccs3)C(C)C)CC2)cc1` (stereo not drawn) [Example 94, 1-[4-cyano-5-methyl-4-(2-thienyl)hexyl]-4-[2-(4-methyltiophenoxy)ethyl]piperazine], the IC50 came to 0.7 µM.
The value for `CSc1ccc(OCCN2CCN(CCCC(C#N)(c3ccsc3)C(C)C)CC2)cc1` (stereo not drawn) [Example 99] was 0.8 µM; that for `CC(C)C(C#N)(CCCN1CCN(CCOc2ccccc2)CC1)c1ccc(C#N)s1` (stereo not drawn) [Example 107, 1-[4-cyano-5-methyl-4-(5-cyano-2-thienyl)hexyl]-4-(2-phenoxyethyl)piperazine] was 1.6 µM; that for `CC(C)C(C#N)(CCCN1CCN(Cc2cc(-c3ccccc3)on2)CC1)c1ccccc1` (stereo not drawn) [Example 39, 1-[(4-cyano-5-methyl-4-phenyl)hexyl]-4-[(5-phenylisoxazo-3-yl)methyl]piperazine] was 6.2 µM.
The value for `CC(C)C(C#N)(CCCN1CCN(Cc2cc3ccccc3n2C)CC1)c1ccccc1` (stereo not drawn) [Example 13, 1-[(4-cyano-5-methyl-4-phenyl)hexyl]-4-[(1-methyl-2-indolyl)methyl]piperazine] was 6.6 µM; that for `CC(C)C(C#N)(CCCN1CCN(Cc2noc(-c3cccc(F)c3)n2)CC1)c1ccccc1` (stereo not drawn) [Example 45] was 7.4 µM.
The value for `CC(C)C(C#N)(CCCN1CC[C@H](N(CCC#N)Cc2ccccc2)C1)c1cccs1` (stereo partly drawn) [Example 176, 1-[4-cyano-4-(2-thienyl)-5-methylhexyl]-(3s)-3-[N-(2-cyanoethyl)-N-Benzylamino]pyrrolidine] was 2.8 µM; that for `CC(C)C(C#N)(CCCN1CCC(N(CCC#N)CCOc2ccccc2C#N)C1)c1ccccc1` (stereo not drawn) [Example 34, 1-[(4-cyano-5-methyl-4-phenyl)hexyl]-3-[N-(2-cyanoethyl)-N-[2-(2-cyanophenoxy)ethyl]Amino]pyrrolidine] was 4.4 µM; that for `CC(C)n1c(NC2CCN(CCCC(C#N)(c3ccccc3)C(C)C)CC2)nc2ccccc21` (stereo not drawn) [Example 22] was 8.7 µM.
For the compound `CC(C)Cn1c(N2CCN(CCCC(C#N)(c3ccccc3)C(C)C)CC2)nc2ccccc21` (stereo not drawn) [Example 64], the half-maximal inhibitory concentration (IC50) was determined as 6.2 µM.
Under `CC(C)C(C#N)(CCCN1CCN(CCOc2ccc(F)cc2)CC1)c1ccc2ccccc2c1` (stereo not drawn) [Example 25, 1-[4-cyano-5-methyl-4-(2-naphthyl)hexyl]-4-[2-(4-fluorophenoxy)ethyl]piperazine] stands 4.9 µM.
With `CC(C)C(C#N)(CCCN1CCN(CCC(C#N)(c2ccccc2)C(C)C)CC1)c1ccccc1` (stereo not drawn) [Example 66, 1-[(4-cyano-5-methyl-4-phenyl)hexyl]-4-[(3-cyano-4-methyl-3-phenyl)pentyl]piperazine], the IC50 worked out at 4.4 µM.
The value for `CC(C)C(C#N)(CCCN1CCN(CCCC(C#N)c2ccc(F)cc2)CC1)c1ccccc1` (stereo not drawn) [Example 50] was 4.8 µM.
